From the RNAGym collection of RNA variant scans (doi:10.1073/pnas.2313332121)
Variants at the floor of the assay are shown more often than the library holds them.

B1: TPR 5TU (parent)
chain: GGAUCUUCUCGAUCUAACAAAAAAGACAAAUCUGCCACAAAGCUUGAGAGCAUCUUCGGAUGCAGAGGCGGCAGCCUUCGGUGGCGCGAUAGCGCCAACGUUCUCAACUAUGACACGCAAAACGCGUGCUCCGUUGAAUGGAGUUUAUCAUG

Variants of: B1
Assay: polymerase ribozyme fitness, log enrichment relative to wild type (log ratio); higher = more active; in vitro selection for triplet polymerase activity
Procedure, shortened: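 Each subunit of a heterodimeric triplet polymerase ribozyme was mutagenized into a library by PCR, transcribed, and subjected to one round of in vitro selection, run in triplicate. Libraries were annealed with a biotinylated primer, the partner subunit and triplets, incubated frozen at −7 °C, and extended constructs were gel-excised, captured on streptavidin beads and recovered by RT-PCR. Input and output libraries were sequenced on Illumina, keeping genotypes with ≥10 input reads and ≥1 read per output. Fitness is log base 2 of genotype enrichment divided by wild-type enrichment, from inverse-variance-weighted replicate averages.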

Row | Variant | polymerase ribozyme fitness (log ratio)
1 | C10U A39G G42U G59A A60C C63U A91U C105U A115C A142C | ≤ -4.2
2 | C10U A39U C51U A89G G92U A97U C116G G117A | ≤ -4.2
3 | C10U A40C U56A G92U A150G | ≤ -4.2
4 | C10U A41G C57U A138G | ≤ -4.2
5 | C10U A49C A52G G68C G92U C131U U146C | ≤ -4.2
6 | C10U A49C C85A | ≤ -4.2
7 | C10U A49U A142C | ≤ -4.2
8 | C10U A52C G84A U101C C103U A142U | ≤ -4.2
9 | C10U A52G G83A A122C U139C | ≤ -4.2
10 | C10U A52U C85A | ≤ -4.2
11 | C10U A60G A64U C85U C129A | ≤ -4.2
12 | C10U A89C G141C U148A | ≤ -4.2
13 | C10U A91U C103U U127C | ≤ -4.2
14 | C10U A91U G92C C95A G124A | ≤ -4.2
15 | C10U C14G A19G A24U U33C U61G G86A C116A A120C | ≤ -4.2
16 | C10U C14G A23G C51U G58A A66C G86A A107G U134C | ≤ -4.2
17 | C10U C14G C27A A41C G92A C103U A113G A115G G117A G140C | ≤ -4.2
18 | C10U C14G C76A | ≤ -4.2
19 | C10U C18G A19C A40U C87G G88U | ≤ -4.2
20 | C10U C18G A40G U56A C76A G141A A147C U148C | ≤ -4.2
21 | C10U C18U A23G A24C C51U U61A C87U C93U C95U G126C U146G | ≤ -4.2

Row | Variant | polymerase ribozyme fitness (log ratio)
22 | C10U C27A A28C G84U C87A C103A C123G | ≤ -4.2
23 | C10U C27G C54U G92C C114G | ≤ -4.2
24 | C10U C27U C43A G58A G83A G88U C105U G117U U134G | ≤ -4.2
25 | C10U C27U G58C G94A G117U | ≤ -4.2
26 | C10U C27U U31G A49U U78G C93U C149G | ≤ -4.2
27 | C10U C32G C35G C93A | ≤ -4.2
28 | C10U C32G G42U G81C C108G G128A C131A A138U | ≤ -4.2
29 | C10U C32U C76G | ≤ -4.2
30 | C10U C32U G84A | ≤ -4.2
31 | C10U C35U G50A G65C C85U C93U C149A | ≤ -4.2
32 | C10U C38U A73G A89G A97G C116G A122U C129A | ≤ -4.2
33 | C10U C43A U78A C87U U134G A142C | ≤ -4.2
34 | C10U C43G G71C A91U C93A | ≤ -4.2
35 | C10U C54U G81U C87U G100U C125G | ≤ -4.2
36 | C10U C54U U55G | ≤ -4.2
37 | C10U C57A A60U C95U C105U A120U | ≤ -4.2
38 | C10U C57A C75G C132G | ≤ -4.2
39 | C10U C57A G83C G141A | ≤ -4.2
40 | C10U C57G C85A | ≤ -4.2
41 | C10U C57U G59A C93A G117U | ≤ -4.2
42 | C10U C87U C96U | ≤ -4.2

Row | Variant | polymerase ribozyme fitness (log ratio)
43 | C10U C93U | -4.06
44 | C10U C93U A110U | ≤ -4.2
45 | C10U G11A C14G A26G C93G C114G A115U U148A | ≤ -4.2
46 | C10U G11U A30G G42C U44C A91U C96A G124A | ≤ -4.2
47 | C10U G11U G50C C93A C105G U151G | ≤ -4.2
48 | C10U G25U C32A C76A G83U G88C C93G | ≤ -4.2
49 | C10U G42C A49C A66G C79G A91G C125A A147G A150C | ≤ -4.2
50 | C10U G42C A52C A64C G94A | ≤ -4.2
51 | C10U G42C G68A G83C C85G G92U A97G U104A | ≤ -4.2
52 | C10U G42C U53A A66G A91G A110C | ≤ -4.2
53 | C10U G46A C85G A113U G128A G143U U148A | ≤ -4.2
54 | C10U G46A U55A U61A G81U C93A | ≤ -4.2
55 | C10U G48A C54U G83A C105U A122C | ≤ -4.2
56 | C10U G48C C85G | ≤ -4.2
57 | C10U G50A U55G G80C G86U | ≤ -4.2
58 | C10U G50C C79A C103A G141C | ≤ -4.2
59 | C10U G58A U61A G84U U148G | ≤ -4.2
60 | C10U G59U C79U C87U G112C U146A | ≤ -4.2
61 | C10U G68A C93U U104C A106G | ≤ -4.2
62 | C10U G84U | -4.13
63 | C10U G92U C95A C105A A107C G152A | ≤ -4.2

Row | Variant | polymerase ribozyme fitness (log ratio)
64 | C10U G94A C96U C99G U144G | ≤ -4.2
65 | C10U U13G A23U G62A C96U U134A U144A | ≤ -4.2
66 | C10U U15A C36A A37G G92A C96G | ≤ -4.2
67 | C10U U31G A66C G86U | ≤ -4.2
68 | C10U U44A C75U C85A A91G U134A U146A | ≤ -4.2
69 | C10U U45G A60C C85U | ≤ -4.2
70 | C10U U53A C85A A115G G124C G141C U148G | ≤ -4.2
71 | C10U U53A C87A U90A A97U C118G | ≤ -4.2
72 | C10U U56G C57U G70A C79G C85U U139C | ≤ -4.2
73 | C10U U61G C95G C125U | ≤ -4.2
74 | C10U U78A G86A A107G G124A G140A G141C | ≤ -4.2
75 | C10U U102A A106U C132G | ≤ -4.2
76 | C10U U135A G141A C149G | ≤ -4.2
77 | C10U U151G | ≤ -4.2
78 | G11A A17G A24C A26U C85U G86A U101A G128A U130C | ≤ -4.2
79 | G11A A17G A29C A40C G42C G67C G94A C96G A97C C118U A120U G133U | ≤ -4.2
80 | G11A A19C A29U U31C A73C G84U C123A G141C | ≤ -4.2
81 | G11A A19G C32A G94A A137U | ≤ -4.2
82 | G11A A20C A41C G48A A66C G71A C79U U102C | ≤ -4.2
83 | G11A A20U A22G A41U C96A A98U C116U | ≤ -4.2
